The text below walks through data of the antibiotic and cytotoxicity screens of Wong et al. (2023).

Experiment [1] has as its system HSkMC (human skeletal muscle cells). Kind of experiment: cytotoxicity call (relative viability < 0.9). The settings on record: 10 µM.
In experiment [2] the test system is HepG2. Kind of experiment: cytotoxicity call (relative viability < 0.9). To be noted: 10 µM.
Experiment [3] deals with S. aureus RN4220. Kind of experiment: growth inhibition call (relative growth <= 0.2). The settings on record: 50 µM.

Each structure is given as a SMILES string. Some of the results follow.

For `C[C@@H]1CN([C@H](C)CO)C(=O)c2cc(NS(=O)(=O)c3ccc(Cl)cc3)ccc2O[C@@H]1CN(C)C(=O)Nc1ccc(C(F)(F)F)cc1`, the cytotoxicity call in experiment [1] is “inactive”. For the same compound, the cytotoxicity call in experiment [2] was “active”. Besides, in experiment [3], the growth inhibition call is “inactive”.

As for `COCC(=O)Nc1ccc2c(c1)C(=O)N(C)C[C@@H](OC)[C@@H](C)CN(C(=O)Cc1ccccn1)[C@H](C)CO2`, the cytotoxicity call in experiment [1] and in experiment [2] was “inactive” in each case. In experiment [3], the growth inhibition call was “inactive”.

Regarding `CN1CCc2onc(Cn3ccnc3)c2C1`, the cytotoxicity call in experiment [1] and in experiment [2] was “inactive” each time. The growth inhibition call in experiment [3] is “inactive”.

Consider `C[C@@H]1CN([C@@H](C)CO)C(=O)c2cc(-c3cccnc3)cnc2O[C@H]1CN(C)Cc1ccc(-c2ccccc2)cc1`, for which the cytotoxicity call in experiment [1] and in experiment [2] was “inactive” in each case. In addition, the growth inhibition call in experiment [3] was “inactive”.

Regarding `C[C@H]1CCCCO[C@H](CN(C)CC2CC2)[C@@H](C)CN([C@@H](C)CO)C(=O)c2cc(NS(C)(=O)=O)ccc2O1`, the cytotoxicity call in experiment [1] and in experiment [2] was “inactive” throughout. In addition, the growth inhibition call in experiment [3] was “inactive”.

On to `C[C@H]1CN([C@@H](C)CO)C(=O)c2cccc(NC(=O)c3nc4ccccc4s3)c2O[C@@H]1CN(C)C(=O)Nc1ccc(F)cc1`, for which the cytotoxicity call in experiment [1] and in experiment [2] was “inactive” throughout. Also, the growth inhibition call in experiment [3] was “inactive”.

As to `C[C@@H]1CN([C@H](C)CO)C(=O)c2cc(C#CCN(C)C)cnc2O[C@@H]1CN(C)C(=O)CCN1CCCCC1`, the cytotoxicity call in experiment [1] and in experiment [2] was “inactive” throughout. Moreover, the growth inhibition call in experiment [3] is “inactive”.

Take `Cc1ccc(S(=O)(=O)Nc2ccc3c(c2)CC(=O)N([C@H](C)CO)C[C@@H](C)[C@H](CN(C)S(=O)(=O)c2ccccc2)O3)cc1`: the cytotoxicity call in experiment [1] and in experiment [2] was “inactive” throughout. For the same compound, in experiment [3], the growth inhibition call was “inactive”.

With `Nc1nc(N)nc(-c2cc(Cl)ccc2Cl)n1.O=C(O)C=CC(=O)O`, the cytotoxicity call in experiment [1] and in experiment [2] was “inactive” each time. For the same compound, the growth inhibition call in experiment [3] is “inactive”.

On to `C[C@@H]1CN([C@@H](C)CO)C(=O)c2cc(NS(=O)(=O)c3cn(C)cn3)ccc2O[C@H]1CN(C)S(C)(=O)=O`, for which, in experiment [1], the cytotoxicity call is “inactive”. In addition, in experiment [2], the cytotoxicity call is “active”. Moreover, the growth inhibition call in experiment [3] was “inactive”.

In the case of `COc1ccc(NC(=O)Nc2ccc3c(c2)CC(=O)N([C@H](C)CO)C[C@H](C)[C@@H](CN(C)Cc2ccc(Cl)c(Cl)c2)O3)cc1`, the cytotoxicity call in experiment [1] and in experiment [2] was “inactive” in each case. Also, the growth inhibition call in experiment [3] was “inactive”.

In the case of `C[C@H]1CN([C@@H](C)CO)C(=O)c2cc(C#CCc3ccccc3)cnc2O[C@@H]1CN(C)C(=O)Cc1cccnc1`, the cytotoxicity call in experiment [1] and in experiment [2] was “inactive” throughout. Further, the growth inhibition call in experiment [3] was “inactive”.

Regarding `C[C@H](CO)N1C[C@H](C)[C@H](CN(C)Cc2ccccc2)OCCCC[C@H](C)Oc2ccc(NC(=O)c3ccncc3)cc2C1=O`, the cytotoxicity call in experiment [1] and in experiment [2] was “inactive” throughout. The growth inhibition call in experiment [3] is “inactive”.

Turning to `C[C@H]1CN([C@@H](C)CO)C(=O)c2cccc(NC(=O)C3CCOCC3)c2O[C@H]1CN(C)C(=O)Nc1ccc2c(c1)OCO2`, the cytotoxicity call in experiment [1] and in experiment [2] was “inactive” throughout. Also, in experiment [3], the growth inhibition call was “inactive”.

With `CC[C@@H](CN)Cc1ccccc1`, the cytotoxicity call in experiment [1] and in experiment [2] was “inactive” throughout. The growth inhibition call in experiment [3] is “inactive”.

For `Cc1cccc(NC(=O)C[C@H]2NCCNC2=O)c1`, the cytotoxicity call in experiment [1] and in experiment [2] was “inactive” throughout. Besides, the growth inhibition call in experiment [3] was “inactive”.

Regarding `Cc1noc(C)c1NC(=O)Nc1ccc2c(c1)CC(=O)N([C@H](C)CO)C[C@@H](C)[C@H](CN(C)S(C)(=O)=O)O2`, the cytotoxicity call in experiment [1] and in experiment [2] was “inactive” throughout. Besides, in experiment [3], the growth inhibition call was “inactive”.

As to `Cc1noc(C)c1NC(=O)Nc1ccc2c(c1)C(=O)N([C@H](C)CO)C[C@H](C)[C@@H](CN(C)S(=O)(=O)c1ccccc1)OCCCC[C@@H](C)O2`, the cytotoxicity call in experiment [1] and in experiment [2] was “inactive” in each case. In experiment [3], the growth inhibition call is “inactive”.

`O=C(CCCN1CCC(O)(c2ccc(Cl)cc2)CC1)c1ccc(F)cc1`: the cytotoxicity call in experiment [1] is “inactive”. Moreover, the cytotoxicity call in experiment [2] is “active”. Further, the growth inhibition call in experiment [3] is “inactive”.

Regarding `C[C@H](CO)N1C[C@H](C)[C@@H](CN(C)S(=O)(=O)c2cccs2)OCCCC[C@H](C)Oc2ccc(NC(=O)Nc3ccc4c(c3)OCO4)cc2C1=O`, the cytotoxicity call in experiment [1] is “active”. The cytotoxicity call in experiment [2] was “inactive”. Also, the growth inhibition call in experiment [3] was “inactive”.

For `C=CCNC(=O)[C@H]1[C@@H]2C(=O)O[C@@H](c3ccccc3)[C@@H](c3ccccc3)N2[C@@H](c2ccccc2OCCO)[C@]12C(=O)Nc1ccc(C#CC3(O)CCCCCC3)cc12`, the cytotoxicity call in experiment [1] and in experiment [2] was “inactive” throughout. For the same compound, the growth inhibition call in experiment [3] is “inactive”.

Regarding `CO[C@@H]1CN(C)C(=O)c2ccc(NS(=O)(=O)CC(F)(F)F)cc2OC[C@H](C)N(C(=O)NC(C)C)C[C@@H]1C`, the cytotoxicity call in experiment [1] and in experiment [2] was “inactive” in each case. Also, the growth inhibition call in experiment [3] was “inactive”.

Turning to `Cc1noc(C)c1S(=O)(=O)Nc1ccc2c(c1)C(=O)N([C@H](C)CO)C[C@@H](C)[C@@H](CN(C)S(=O)(=O)c1cn(C)cn1)O2`, the cytotoxicity call in experiment [1] and in experiment [2] was “inactive” each time. Moreover, the growth inhibition call in experiment [3] is “inactive”.

With `O=C(C[C@H]1C[C@H]2c3cc(NC(=O)c4ccc5c(c4)OCO5)ccc3O[C@H]2[C@H](CO)O1)NCc1ccccn1`, the cytotoxicity call in experiment [1] and in experiment [2] was “inactive” throughout. The growth inhibition call in experiment [3] is “inactive”.

For the compound `CCOC(=O)/C(=N/O)c1csc(N)n1`, the cytotoxicity call in experiment [1] and in experiment [2] was “inactive” in each case. For the same compound, in experiment [3], the growth inhibition call was “inactive”.

For the compound `C[C@@H]1CN([C@H](C)CO)C(=O)c2cc(C#CCN(C)C)cnc2O[C@H]1CN(C)S(C)(=O)=O`, the cytotoxicity call in experiment [1] and in experiment [2] was “inactive” in each case. Further, the growth inhibition call in experiment [3] was “inactive”.

As to `C[C@H](CO)N1C[C@H](C)[C@H](CN(C)C(=O)Cc2ccccc2)OCCCC[C@H](C)Oc2ccc(NC(=O)Nc3ccc(F)cc3)cc2C1=O`, the cytotoxicity call in experiment [1] and in experiment [2] was “inactive” throughout. In addition, the growth inhibition call in experiment [3] is “inactive”.

Consider `CNC[C@H](O)c1cccc(O)c1`, for which the cytotoxicity call in experiment [1] and in experiment [2] was “inactive” throughout. The growth inhibition call in experiment [3] is “inactive”.
